According to PMC10726135:
Some of the results follow. At the low end of the ranking, values are background and their order means little. The protein was read in a cell extract, so binding may be indirect.

target: T1, HNF4alpha2 (COS-7 nuclear extract) (UniProt P41235); assay: protein-binding microarray; settings: COS-7 nuclear extract on double-stranded Agilent 4x180k PBM; binding buffer, salt, pH and temperature not given; high values mean tight binding; double strand, one strand shown; sequences stand for … in …GCCTAGGGAGATTAGAGTATCGGTCGA
T1 sequence: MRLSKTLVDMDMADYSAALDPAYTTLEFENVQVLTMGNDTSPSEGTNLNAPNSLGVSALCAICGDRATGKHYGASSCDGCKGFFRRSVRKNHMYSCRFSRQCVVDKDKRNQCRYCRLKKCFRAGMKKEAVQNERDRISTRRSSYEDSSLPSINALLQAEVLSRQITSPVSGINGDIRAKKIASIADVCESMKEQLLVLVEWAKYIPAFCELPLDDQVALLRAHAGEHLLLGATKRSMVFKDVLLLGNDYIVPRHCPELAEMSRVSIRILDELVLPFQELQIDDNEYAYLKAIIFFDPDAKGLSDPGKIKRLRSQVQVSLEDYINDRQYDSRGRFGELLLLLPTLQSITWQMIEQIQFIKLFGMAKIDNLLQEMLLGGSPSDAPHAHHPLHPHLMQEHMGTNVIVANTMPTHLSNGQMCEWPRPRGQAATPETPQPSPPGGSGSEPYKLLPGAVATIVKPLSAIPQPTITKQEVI

| Sequence | binding signal (log2 normalized intensity) |
| --- | --- |
| CCTCTGATTTGCTGATCCTATTTACCTGCC | 0.37 |
| CAATGACCTTTGACCCTTCTCTGGGAGAAA | 8.21 |
| GTAGAGACCTGTCTTCCTGGTGACCTTTGT | 7.11 |
| ATGCTTCCTACACGTGCTCTACTAGGCAGT | -1.06 |
| ACAAAGGTCACACTCCTGTGCAAACATCTG | 0.545 |
| GTTCTGTACTTTGGAACCTGAAAGAGCAAC | 3.87 |
| GCATATTTAACTTGGCAAGGGGAGGCACTC | -0.835 |
| TTATCATGTGGTATTAACATGTAAATATGA | 1.69 |
| ATTGTAATCTTCAGCTGCCTTTTGCCAGGC | -0.0437 |
| GCACAGCCTCCCTGTGGGGGAGGTGCAGAG | -1.14 |
| GTCAGCCCTGGTCCAGGCCATGCAACAGCC | -1.22 |
| GTTTTCTCTGAGTTTTGAGTGTGTTTCTTG | 1.53 |
| CTAAAAACATTGTGGAGCTCATGTAAGGTC | 1.62 |
| GTTCACCAGGAAGCAAGACAATGCACTCAT | -1.17 |
| TTGGTGGGAGGAGGGGGGAGGGTCGGCAAC | -1.13 |
| CCCTGGGGTAATAAAAGTGTACAAAGCACA | -0.091 |
| CAGGACCACACATTCCATTACTGCAGAGGC | -1.12 |
| AGATACTGAACCTTGCACTATTGACCCAGT | 3.62 |
| TTAATGAAATACAGTAGACTTTTTTTTTCT | -0.908 |
| AAATGCCAATAGTGGCTTTGTTGATAACAA | -1.23 |
| AGGCAACAATGCCTTGTGTACTGAGCAGGG | -0.682 |
| AGGGAGGAGGGGAAGAAAGGAATGTGCCTG | -1.26 |
| CTGGGCCTTAAAGCATGACAAAATAACGAA | -1.04 |
| AAACATCAAGACAGGTGAGAGAGCTGCATT | -0.923 |

| Sequence | binding signal (log2 normalized intensity) |
| --- | --- |
| CTTCTTTGCTTAAGCATAGCAAAAGTGACC | 2.7 |
| TGCCATTAAACACCTTATTTGGTCATGTTT | 1.67 |
| TGTCTTGCTGATAAAGGGTGTGAGAGAGAA | 1.13 |
| TGTAGAGGCCAGAGGTCGTGTCTCCATTCA | 0.698 |
| GATAGCTAAACCAGATACGTGGGTCTGGTA | -0.635 |
| GAATAAAACCTCCCCCAAACCAAAGAGAAA | 4.39 |
| CAGCTGTTCCGTGTTCCAGAGCCTCCAAAG | -1.13 |
| ACCCCAGCCTGCCCTCCTAGGGACAGGTGC | 2.75 |
| CGCTCCTCCCACGTCGCTGCCGCAGATCCC | -1.06 |
| CAATATCACATACCAGTAAAAACAACTGCC | -1.1 |
| AGGCCCAGGGCAAGGACTCTAAAGGGAATA | -1.21 |
| CTAGAAACAGAGCCCAAGGCAAAGCAGATG | -1.2 |
| TACTTTTGCTCTGTTGAAGAATAAGACCGA | 0.948 |
| GTCCGCCACTAGCAACAGCTGCAGTGAAAT | -1.14 |
| GGCAAGTATGGTAAGGTCGACCTTTAAACG | 5.96 |
| AGTCTGGAGGGGTGCGAAGGTCGAGGCCAG | 2.23 |
| TTTAGCAACTGGTATGTTAGATTAGTGTGC | 1.13 |
| TCCAAACCGGTCTTTCCACTTGGGCTTCCT | -0.77 |
| CACAAGCTTCCCTTTCTACTGCCAGCCAGG | -1.08 |
| GGGGCCCCATCGACCTTTGCTCCCGACTCT | 8.11 |
| TATGTGACATGGACATTCTATGGAATACAG | 0.588 |
| AGCCCCCTTTCCCTTATCTTTGTTATCTGT | 2.5 |
| TTTGTTCCTAGCCACCATGCTCGGCTGCCT | -0.771 |
| AAGGAATGTAAGATGTTTGGGCGGGGAAAA | -0.858 |

| Sequence | binding signal (log2 normalized intensity) |
| --- | --- |
| CTCCCTTCCACCTTTGCCCTCCAAACTGAG | 3.52 |
| TGGACTTTGAACCTCTCTTCTTTTTCGTCT | 6.71 |
| CTTATCAGCAGGGTCTTTTTGACCTGTATC | 3.32 |
| TAAGCCCACTAGGGAATGAAGCTAAAAGAA | -1.27 |
| TTGGTTCCACATCAGAGAGTTCAAACTCTG | 1.49 |
| GATCAAGTGTCTCTACTGTCCATCTTTTGC | 1.08 |
| GCACACATAATAGATGTGCTATATAAAAAC | -0.847 |
| CCCCACCCGCGGTCCGTCCCTCCTGGTCGA | 3.63 |
| CTAAGATAACCATCAAATCCTCGGAAGACG | -1.16 |
| AATCCTCGGAAGACGCACCTCTGCATACTT | -1.09 |
| GAAACCAGAAAAATGGAGCAGCTCTGTATT | -1.02 |
| AGGCGCGCCCGCGCTGCTCGCAAGCAGAAC | -1.13 |
| CTCCTGTTTGTATTCCTTGTCCTTGACCCT | 4.35 |
| GATGAAAGGAGCTTGGGAAGACAGATGTGA | -0.318 |
| CCCCCACCTCTTTTCCCAGACGTGGTGGAT | 3.63 |
| AGGAGCTTGTAAGCCACAGTACAAAGGTGA | 3.66 |
| AACCTCCTTTGAGATAGCTATGATTATCCT | -0.964 |
| TAAGGAACTGTGTAATAAGGAGTTGTGTGA | 1.03 |
| GGCTACTTTCCTCCCACCTTCGAGCTTCAC | 1.19 |
| TTATTATTTGTCTGGGTTATCAGTCTCTGT | 2.14 |
| AGAGGGAAAGCGAGAGAGCCTGGACACACG | -1.04 |
| TGAAGCCGTCCTGTCCTGGACTTTCCTTTG | 2.85 |
| TAATCTCAGATATGCTAATTAACCCTCCTG | 0.717 |
| ACAAGATCAATCAATTTACCTCTGCTCCCC | 2.08 |

| Sequence | binding signal (log2 normalized intensity) |
| --- | --- |
| TTAGAGAAAAAGCCCAAGAAACTTCAAAGA | -1.15 |
| GTGCTTGTCTGACTGCTGCCAAAGGTAAAA | 0.539 |
| CCCCTATGTCTAGGACTCTAGTGTTCTCTT | 1.15 |
| GACGCGGTCTCAGTTAACGGGGACGCTTTA | -1.07 |
| GGAATTCCTCCTCCTGTTTGTATTCCTTGT | 1.24 |
| CTGTTGACCTTGAAATGCCATGTGATCTCT | 2.1 |
| AGGGTCAGAGGACAGGCTAATGAGATAATG | -1.16 |
| TGAAAACAGGGCAAGGAACGGAATGTGTGA | -0.72 |
| CGGCGGCGCAGACGGCGGATCCTCCCAGCC | -1.11 |
| AGAAATGCCAAGATCAGGGCTAAGATCAGA | -1.04 |
| TGTTTCTTATCACACAGTCAACATGTCATT | 0.747 |
| AGATACGCCTGAACTTTGATCAGCATTCAA | 5.06 |
| GAGCCATAGCCCAAGTTCAAAGGTTATCTG | 5.92 |
| CACAGGTAAACATTTGCCTTTAGGGCCCCC | 2.56 |
| TACCCACGTTTAGGATTAAACACGTTTTAT | 0.317 |
| ACCCTTTTGCCCTTTGAGCTTCTGTCTTGG | 4.16 |
| TACCAACAGGCTTAACATAAAGGGTTGAAG | -0.282 |
| GGATGACCCAGATAGGCAAAGTGGCTAGGA | -1.01 |
| CCTCTATCCTCCACAAACAAACAGGGTGGC | -0.292 |
| CAAGTTGGTTTACATTCTTAGAAGATAAAG | 0.954 |
| TAATTCTGTGTCATCTGAACTCTGACCAAC | 3.89 |
